Results published in publication PMC4336329 (PLoS ONE, 2015).
Among all 310,000 compounds or so, about 2,200 (0.71%) showed an effect of 50% or more. Effects have a minus sign here. Some of the results follow.

Each compound was assayed against human ether-à-go-go-related gene (hERG) potassium channel (human, UniProt Q12809) (assay: primary screen, population patch clamp on CHO cells stably expressing hERG).
Sequence of human ether-à-go-go-related gene (hERG) potassium channel (Q12809 whole entry, looked up): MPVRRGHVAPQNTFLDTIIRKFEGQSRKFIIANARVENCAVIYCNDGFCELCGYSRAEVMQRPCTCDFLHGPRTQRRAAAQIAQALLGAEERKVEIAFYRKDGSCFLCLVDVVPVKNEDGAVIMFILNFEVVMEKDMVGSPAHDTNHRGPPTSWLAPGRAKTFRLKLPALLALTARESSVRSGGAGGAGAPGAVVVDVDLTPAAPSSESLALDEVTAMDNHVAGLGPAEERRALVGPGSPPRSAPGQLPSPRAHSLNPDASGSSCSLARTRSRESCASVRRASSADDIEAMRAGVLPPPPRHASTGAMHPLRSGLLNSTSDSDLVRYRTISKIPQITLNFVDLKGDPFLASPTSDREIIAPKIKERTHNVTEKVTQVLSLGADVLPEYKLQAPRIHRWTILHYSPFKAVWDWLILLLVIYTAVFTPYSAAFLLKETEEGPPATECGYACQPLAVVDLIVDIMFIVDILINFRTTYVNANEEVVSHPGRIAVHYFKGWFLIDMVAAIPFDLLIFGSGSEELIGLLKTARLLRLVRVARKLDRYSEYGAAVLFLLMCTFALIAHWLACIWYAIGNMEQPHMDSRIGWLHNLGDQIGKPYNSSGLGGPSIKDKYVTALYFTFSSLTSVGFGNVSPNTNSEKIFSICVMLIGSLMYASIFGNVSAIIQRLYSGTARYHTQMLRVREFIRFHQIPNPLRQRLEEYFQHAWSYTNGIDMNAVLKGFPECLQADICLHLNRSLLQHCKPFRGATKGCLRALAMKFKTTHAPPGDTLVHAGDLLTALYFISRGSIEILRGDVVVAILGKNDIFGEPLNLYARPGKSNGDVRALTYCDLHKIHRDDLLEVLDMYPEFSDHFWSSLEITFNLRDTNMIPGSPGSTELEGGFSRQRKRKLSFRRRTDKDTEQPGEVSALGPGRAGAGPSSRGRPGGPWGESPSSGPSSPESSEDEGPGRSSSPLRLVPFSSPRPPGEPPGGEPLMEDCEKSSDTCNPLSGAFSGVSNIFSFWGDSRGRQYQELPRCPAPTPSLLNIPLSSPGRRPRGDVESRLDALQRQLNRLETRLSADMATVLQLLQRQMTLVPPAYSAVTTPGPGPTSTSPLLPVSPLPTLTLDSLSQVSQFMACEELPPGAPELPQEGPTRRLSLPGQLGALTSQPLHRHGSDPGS
With O=C(NC1CCCC1)C(c1ccncc1)N(C(=O)c1csnn1)c1ccc(Cl)cc1 (stereo not drawn) the “hERG current change (%, negative = inhibition) at 1uM” value was 11.8%. With COc1ccc(OCC(O)CNS(=O)(=O)c2ccc(NC(C)=O)cc2)cc1 (stereo not drawn) the “hERG current change (%, negative = inhibition) at 1uM” value was 8.05%. CCCCOc1ccc(C(=O)N(CC)CC(=O)NCc2cccs2)cc1 was tested, and the “hERG current change (%, negative = inhibition) at 1uM” value was -8.88%. For Cl.NCCc1nnc(SCc2ccccc2F)o1, the “hERG current change (%, negative = inhibition) at 1uM” value was 16.1%. CNC(=S)N(Cc1ccc2c(c1)OCO2)C1CC(=O)N(c2ccc(F)cc2)C1=O (stereo not drawn) was tested, and the “hERG current change (%, negative = inhibition) at 1uM” value was 7.47%. With CC(=O)Nc1ccc(S(=O)(=O)N=S(C)C)cc1 the “hERG current change (%, negative = inhibition) at 1uM” value was 2.34%. For COC(=O)c1nn(-c2cccc(C)c2)c2nnc(Cc3ccccc3)c(=O)n12, the “hERG current change (%, negative = inhibition) at 1uM” value was 3.61%. FC(F)(F)c1ccccc1/C=N/Nc1ccccn1 was tested, and the “hERG current change (%, negative = inhibition) at 1uM” value was 1.55%. COc1ccccc1NS(=O)(=O)c1cccc(C(=O)NCC(c2ccco2)N(C)C)c1 (stereo not drawn) was tested, and the “hERG current change (%, negative = inhibition) at 1uM” value was -8.76%. For Nc1n[nH]c(S(=O)(=O)CCCc2ccccc2)n1, the “hERG current change (%, negative = inhibition) at 1uM” value was 10.6%. For O=C(CCSCCc1ccccn1)Nc1ccc(Br)cn1, the “hERG current change (%, negative = inhibition) at 1uM” value was -7.53%. For COc1ccccc1CN1CCSCC1, the “hERG current change (%, negative = inhibition) at 1uM” value was 8.24%. In the case of O=C(Cn1cc2c(n1)CCCCC2)NCc1ccccn1, the “hERG current change (%, negative = inhibition) at 1uM” value is reported as -2.41%. In the case of O=C(Nc1ncc(Cc2ccc(SC(F)F)cc2)s1)c1ccc(OC(F)F)cc1, the “hERG current change (%, negative = inhibition) at 1uM” value is reported as 13.2%. COC(=O)c1ccn(-c2nc(-c3ccco3)cc(C(F)(F)F)n2)n1 was tested, and the “hERG current change (%, negative = inhibition) at 1uM” value was -3.11%. O=C(CCCCCNC(=S)Nc1ccccc1)C[N+](=O)[O-] was tested, and the “hERG current change (%, negative = inhibition) at 1uM” value was 0.796%. For COc1ccc(Nc2nc(N3CCCC3)nc(N3CCOCC3)n2)cc1, the “hERG current change (%, negative = inhibition) at 1uM” value was 1.98%. In the case of CCCCNS(=O)(=O)c1ccc2nc(SCC(=O)N3CC(C)OC(C)C3)[nH]c2c1 (stereo not drawn), the “hERG current change (%, negative = inhibition) at 1uM” value is reported as 9.31%. In the case of Cc1c(S(=O)(=O)Nc2ccc(Br)cc2)c(=O)n(C)c(=O)n1C, the “hERG current change (%, negative = inhibition) at 1uM” value is reported as 12%. With Nc1nc(-c2cccs2)c(CC(=O)O)s1 the “hERG current change (%, negative = inhibition) at 1uM” value was 18.2%. In the case of COc1ccc(CC(=O)OC(C)CN2CCCCC2)cc1 (stereo not drawn), the “hERG current change (%, negative = inhibition) at 1uM” value is reported as 11%. In the case of CCCNC(=O)c1cc2cc([N+](=O)[O-])ccc2s1, the “hERG current change (%, negative = inhibition) at 1uM” value is reported as -1%. In the case of COC(=O)c1c(NC(=O)CN2C(=O)c3ccccc3C2=O)sc(Cc2ccc3c(c2)OCO3)c1C, the “hERG current change (%, negative = inhibition) at 1uM” value is reported as 11.7%. With COc1ccc(C(=O)Nn2cc3c(c2-c2ccccc2)c(=O)n(C)c(=O)n3C)cc1 the “hERG current change (%, negative = inhibition) at 1uM” value was 16.6%. In the case of Cc1noc(C)c1C(=O)N1CC(C)OC(C)C1 (stereo not drawn), the “hERG current change (%, negative = inhibition) at 1uM” value is reported as -5.43%. In the case of CCOc1ccc(CSC(CC(=O)O)C(=O)O)cc1 (stereo not drawn), the “hERG current change (%, negative = inhibition) at 1uM” value is reported as 6.71%. With O=C1/C(=C/c2ccccn2)SC(=S)N1c1cccc(O)c1 the “hERG current change (%, negative = inhibition) at 1uM” value was 11.2%. For COc1ccc(CC(C)NCCc2ccc(OC)c(OC)c2)cc1 (stereo not drawn), the “hERG current change (%, negative = inhibition) at 1uM” value was -45.3%. In the case of COc1cc(NC(=O)NCc2ccncc2)cc(OC)c1OC, the “hERG current change (%, negative = inhibition) at 1uM” value is reported as 4.67%. For C/C(=N/NC(=O)c1cc(-c2cccc([N+](=O)[O-])c2)n[nH]1)c1ccc(Cl)cc1, the “hERG current change (%, negative = inhibition) at 1uM” value was 9.99%. COC(=O)c1ccc(-c2ccc(Cl)cc2)nc1C was tested, and the “hERG current change (%, negative = inhibition) at 1uM” value was 14.1%. In the case of Cc1ccccc1/C=C/C1=NCCN1.O=C(O)C(=O)O, the “hERG current change (%, negative = inhibition) at 1uM” value is reported as 7.6%. In the case of CCNC(=S)Nc1cc(-c2ccc(Cl)cc2)[nH]n1, the “hERG current change (%, negative = inhibition) at 1uM” value is reported as 14.3%. With CCOC(=O)c1cccc(S(=O)(=O)N(CCO)Cc2cc3cc(OC)c(OC)cc3[nH]c2=O)c1 the “hERG current change (%, negative = inhibition) at 1uM” value was -2.88%. For CC(=O)Nc1ccc(NC(=O)C(C)OC(=O)C2(c3ccc(Cl)cc3)CCCC2)cc1 (stereo not drawn), the “hERG current change (%, negative = inhibition) at 1uM” value was 8.8%. For CCC(C)c1ccc(OCC(=O)O)cc1 (stereo not drawn), the “hERG current change (%, negative = inhibition) at 1uM” value was 6.66%. O=C1CC(C(=O)Nc2ncccn2)C(c2ccccc2)O1 (stereo not drawn) was tested, and the “hERG current change (%, negative = inhibition) at 1uM” value was 6.34%. For Nc1nnc(C(=O)c2ccccc2N)s1, the “hERG current change (%, negative = inhibition) at 1uM” value was 2.64%. O=c1c2ccccc2nc2n1CCCN2 was tested, and the “hERG current change (%, negative = inhibition) at 1uM” value was 13.5%. With O=C(CSC(=S)N1CCSCC1)c1ccc(Cl)cc1 the “hERG current change (%, negative = inhibition) at 1uM” value was 8.62%. With COc1ccc(S(=O)(=O)N2CCC(=O)N2)cc1 the “hERG current change (%, negative = inhibition) at 1uM” value was 15.7%. In the case of CCOC(=O)N1CCC(NS(=O)(=O)c2cc(Br)cc3c2N(C(=O)CC)CC3)CC1, the “hERG current change (%, negative = inhibition) at 1uM” value is reported as 11.1%. With CCOC(=O)CSC1=C(C#N)C(C)C2=C(CCCC2=O)N1 (stereo not drawn) the “hERG current change (%, negative = inhibition) at 1uM” value was 0.85%. In the case of CCC(=O)c1ccc(OCC(O)CN2CCCCC2)cc1.Cl (stereo not drawn), the “hERG current change (%, negative = inhibition) at 1uM” value is reported as 3.96%. With Cc1ccc2c(c1)N(CCC(=O)NC1CCCCC1C)C(=O)CO2 (stereo not drawn) the “hERG current change (%, negative = inhibition) at 1uM” value was 20.8%. For Cc1occc1-c1nnc(SCC(=O)Nc2c(F)cccc2F)n1C, the “hERG current change (%, negative = inhibition) at 1uM” value was 5.07%. For COc1ccc(CN(C)CC(=O)Nc2ccc(Cl)cc2F)c(OC)c1.O=C(O)C(=O)O, the “hERG current change (%, negative = inhibition) at 1uM” value was 7.84%. For COc1ccc(C2C(C#N)=C(SCC(=O)Nc3ccc(C)cc3)NC3=C2C(=O)CC(C)(C)C3)cc1 (stereo not drawn), the “hERG current change (%, negative = inhibition) at 1uM” value was 11.1%. In the case of CC(C)N(Cc1nccn1C)C(=O)c1cc(COc2ccc3ncccc3c2)on1, the “hERG current change (%, negative = inhibition) at 1uM” value is reported as 6.13%. In the case of Cc1c(C(=O)N2CCOCC2)[nH]c2c1C(=O)CC(c1ccc(Cl)cc1)C2 (stereo not drawn), the “hERG current change (%, negative = inhibition) at 1uM” value is reported as -7.88%. With CC(C)(C)NC[C@H](O)COc1nsnc1N1CCOCC1.O=C(O)/C=C\C(=O)O the “hERG current change (%, negative = inhibition) at 1uM” value was 13.2%. In the case of COc1cc2c(cc1OC)C(c1ccccc1)N(C(=O)CSCC(=O)O)CC2 (stereo not drawn), the “hERG current change (%, negative = inhibition) at 1uM” value is reported as 16.8%. For COc1ccc(Br)cc1CN(C)CC(=O)Nc1ccccc1Cl, the “hERG current change (%, negative = inhibition) at 1uM” value was -1.67%. In the case of CCC(C(=O)OCC(=O)Nc1ccc(C(N)=O)cc1)c1ccccc1 (stereo not drawn), the “hERG current change (%, negative = inhibition) at 1uM” value is reported as -8.46%. In the case of COC(=O)c1ccc(CSc2nnc(NC(C)C)s2)cc1, the “hERG current change (%, negative = inhibition) at 1uM” value is reported as 3.14%. For O=c1[nH]c(/C=C/c2ccc(Br)cc2)nc2ccccc12, the “hERG current change (%, negative = inhibition) at 1uM” value was 8.11%. In the case of Cc1ccccc1-c1nc(CS(=O)CC(=O)NCc2ccccn2)c(C)o1 (stereo not drawn), the “hERG current change (%, negative = inhibition) at 1uM” value is reported as 16.3%. For Oc1ccccc1Oc1ncc(Br)c(N2CCOCC2)n1, the “hERG current change (%, negative = inhibition) at 1uM” value was -9.87%. Cc1c(Br)cc(C(=O)OC2CCN(C)CC2)c(C)c1C was tested, and the “hERG current change (%, negative = inhibition) at 1uM” value was 9.06%. For Cc1ccc(S(=O)(=O)CCC(=O)OCC(=O)c2ccc(C)c(C)c2)cc1, the “hERG current change (%, negative = inhibition) at 1uM” value was 16.1%.
